{
  "source": "PubChem BioAssay AID485294",
  "about": "(National Center for Advancing Translational Sciences (NCATS), 2010)",
  "note": "About 150 (0.041%) of roughly 370,000 compounds were called active. The inconclusive results got no clear call from the source; some entries with a clear call stand among them for comparison. Calls come from the whole dose curve; as a rule, active = well fitted inhibition curve with a large enough effect; inconclusive = small, poorly fitted or top-dose-only effect; inactive = flat fitted curve, though single readings scatter. Potencies of inconclusive entries are left out as doubtful fits. Potency is the fitted concentration of half-maximal effect; tags give direction and shape of the fitted curve.",
  "data": [
    {"target": "Beta-lactamase (Escherichia coli (strain K12)) (UniProt P00811)", "sequence (P00811 whole entry, looked up)": "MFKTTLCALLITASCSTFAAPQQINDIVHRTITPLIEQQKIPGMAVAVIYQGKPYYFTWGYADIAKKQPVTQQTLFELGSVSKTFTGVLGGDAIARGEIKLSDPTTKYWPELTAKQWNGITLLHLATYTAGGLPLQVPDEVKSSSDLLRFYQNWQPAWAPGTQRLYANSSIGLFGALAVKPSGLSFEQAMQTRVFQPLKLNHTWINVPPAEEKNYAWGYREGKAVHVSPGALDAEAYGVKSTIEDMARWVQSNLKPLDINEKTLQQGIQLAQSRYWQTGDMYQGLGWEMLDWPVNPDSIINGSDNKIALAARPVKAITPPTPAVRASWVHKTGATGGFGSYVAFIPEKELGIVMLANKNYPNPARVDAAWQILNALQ", "assay": "qHTS Inhibitors of AmpC Beta-Lactamase (assay with detergent); note: nearly all actives have a fitted effect of over 25% in size;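 for activity change, negative = inhibition: 0% = no-compound wells and -100% = no-enzyme wells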", "conditions": "AmpC hydrolysis of nitrocefin, absorbance 480 nm, 0.01% Triton; activity change, negative = inhibition: at 114 µM (top of the series)", "procedure,_shortened": "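AmpC (5.3 nM in the dispensed reagent) in 20 mM phosphate pH 7.0 with 0.01% (detergent screen) or 0.0001% Triton X-100 was preincubated with compounds for 15 min at room temperature. Nitrocefin was then added from an 800 uM solution, and hydrolysis was followed at 480 nm.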", "values": [
      {"smiles": "COc1ccc2nc(Nc3nc4cc5c(cc4s3)OCO5)sc2c1", "activity change, negative = inhibition": "inactive: 2.36%"},
      {"smiles": "Cc1noc(C)c1COc1ccc(C(=O)OCC(=O)Nc2cccc(S(=O)(=O)N3CCOCC3)c2)cc1", "activity change, negative = inhibition": "inactive: -13.8%"},
      {"smiles": "COC(=O)C1=C(c2cccc(OCc3ccccc3)c2)C[C@@H]2CC[C@H]1N2C(=O)NCc1ccc2[nH]ccc2c1", "activity change, negative = inhibition": "inactive: -4.45%"},
      {"smiles": "O=C(NCc1ccncc1)c1cc(C(=O)C2CCCCC2)c[nH]1", "Potency": "inconclusive [inhibitor, full curve, poor fit]"},
      {"smiles": "O=C(O)C1Nc2c(O)cccc2C2C=CCC12", "note": "(stereo not given)", "Potency": "inconclusive [inhibitor, partial curve, poor fit]"},
      {"smiles": "Cn1c(=O)cc(N2CCCCC2)[nH]c1=O", "Potency": "inconclusive [inhibitor, partial curve, poor fit]"},
      {"smiles": "Cn1c(-c2ccccc2)cnc1NCc1ccc(-c2ccccc2)cc1", "Potency": "inconclusive [inhibitor, partial curve, poor fit]"},
      {"smiles": "CC(C)(C)c1nnc(NC(=S)Nc2ccccc2)s1", "activity change, negative = inhibition": "inactive: -1.98%"},
      {"smiles": "COc1ccc(NC(=S)NCc2ccco2)cc1", "activity change, negative = inhibition": "inactive: -9.55%"},
      {"smiles": "Cc1ccc(CN2CCSc3ccc(C(=O)N4CCN(c5ncccn5)CC4)cc32)cc1", "Potency": "inconclusive [inhibitor, full curve]"},
      {"smiles": "Cc1ccc(S(=O)(=O)NC(CC(C)C)C(=O)NCc2ccco2)cc1", "note": "(stereo not given)", "Potency": "inconclusive [inhibitor, full curve, poor fit]"},
      {"smiles": "COc1ccc(NC(=O)C/C(C)=N/NC(=O)c2cnccn2)c(OC)c1", "activity change, negative = inhibition": "inactive: -1.05%"},
      {"smiles": "COc1ccc(CSc2nncn2N)cc1Br", "Potency": "inconclusive [inhibitor, full curve, poor fit]"},
      {"smiles": "COc1ccc(Nc2nnc(Cc3ccc(Cl)cc3)c(=O)[nH]2)c(OC)c1", "Potency": "inconclusive [inhibitor, full curve]"},
      {"smiles": "O=C(NCCNc1cc(Cl)ccc1[N+](=O)[O-])c1ccco1", "Potency": "inconclusive [inhibitor, partial curve, poor fit]"},
      {"smiles": "O=C(O)C1CCCN1c1nc(-c2ccc(Cl)c(Cl)c2)cc(C(F)(F)F)n1", "note": "(stereo not given)", "activity change, negative = inhibition": "inactive: -4.39%"},
      {"smiles": "O=C(Cn1cccc1)N1CCN(c2ccc(F)cc2)CC1", "Potency": "inconclusive [inhibitor, partial curve, poor fit]"},
      {"smiles": "CC1CCCCC1NC(=S)NC(=O)c1ccccc1Br", "note": "(stereo not given)", "Potency": "inconclusive [inhibitor, full curve, poor fit]"},
      {"smiles": "CCCc1ccc(C(C)NC(=O)c2cnccn2)cc1", "note": "(stereo not given)", "Potency": "inconclusive [inhibitor, full curve, poor fit]"},
      {"smiles": "CN(C(=O)CSc1nnnn1-c1ccccc1)C1CCCCC1", "Potency": "inconclusive [inhibitor, partial curve]"}
    ]}
  ]
}
